Assay results from publication PMC4336329 (PLoS ONE, 2015).
In all, about 310,000 compounds went through this assay and about 14,000 (4.5%) showed an effect of 50% or more. Effects have a minus sign here. The list shows a part of the results.

target: human ether-à-go-go-related gene (hERG) potassium channel (human, UniProt Q12809); assay: primary screen, population patch clamp on CHO cells stably expressing hERG
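Also: peak tail current of the secondary pulse compared with the same well before compound.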

Sequence of human ether-à-go-go-related gene (hERG) potassium channel (Q12809 whole entry, looked up): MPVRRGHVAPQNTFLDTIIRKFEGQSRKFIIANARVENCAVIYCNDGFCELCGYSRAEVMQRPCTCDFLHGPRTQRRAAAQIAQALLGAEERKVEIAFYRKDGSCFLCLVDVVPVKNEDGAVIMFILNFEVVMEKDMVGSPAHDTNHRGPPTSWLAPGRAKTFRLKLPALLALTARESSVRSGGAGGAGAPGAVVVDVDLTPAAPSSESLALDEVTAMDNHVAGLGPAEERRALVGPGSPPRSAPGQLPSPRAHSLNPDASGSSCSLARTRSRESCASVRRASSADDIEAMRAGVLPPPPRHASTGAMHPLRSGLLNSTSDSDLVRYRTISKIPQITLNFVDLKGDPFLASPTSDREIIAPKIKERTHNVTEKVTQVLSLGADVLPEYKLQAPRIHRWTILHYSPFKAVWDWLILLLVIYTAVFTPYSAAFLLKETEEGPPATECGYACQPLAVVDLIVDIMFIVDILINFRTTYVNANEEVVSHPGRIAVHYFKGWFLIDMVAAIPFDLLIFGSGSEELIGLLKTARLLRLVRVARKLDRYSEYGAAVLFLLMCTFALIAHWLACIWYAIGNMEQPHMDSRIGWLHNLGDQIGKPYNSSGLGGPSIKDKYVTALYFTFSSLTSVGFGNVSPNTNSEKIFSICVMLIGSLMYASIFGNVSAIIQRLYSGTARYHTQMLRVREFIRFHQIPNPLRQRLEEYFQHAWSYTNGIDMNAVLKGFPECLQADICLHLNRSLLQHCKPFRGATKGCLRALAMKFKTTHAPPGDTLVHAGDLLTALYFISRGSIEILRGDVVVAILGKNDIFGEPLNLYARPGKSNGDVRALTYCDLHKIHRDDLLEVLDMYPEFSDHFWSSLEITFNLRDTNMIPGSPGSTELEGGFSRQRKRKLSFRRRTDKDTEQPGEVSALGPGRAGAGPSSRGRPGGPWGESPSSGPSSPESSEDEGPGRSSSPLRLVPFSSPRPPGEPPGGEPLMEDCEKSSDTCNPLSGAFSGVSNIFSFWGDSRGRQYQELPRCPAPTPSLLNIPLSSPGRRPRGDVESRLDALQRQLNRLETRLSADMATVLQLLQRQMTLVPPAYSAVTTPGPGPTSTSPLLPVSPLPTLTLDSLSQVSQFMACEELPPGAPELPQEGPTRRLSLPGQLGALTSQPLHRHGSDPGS

SMILES | hERG current change (%, negative = inhibition) at 10uM [%]
Cc1ccc(C=Nc2ccccc2C(N)=O)s1 | 11
CC(/C=C/c1ccc2c(c1)OCO2)=N/NC(=O)c1ccc(C)nc1 | -0.311
O=C(C1c2ccccc2Oc2ccccc21)N1CCN(c2ccc(Cl)cc2)CC1 | 12.1
Cc1cccc(NP(=O)(Oc2ccccc2F)Oc2ccccc2F)c1 | 0.048
CN(CC1CCCN(CCc2ccc(Cl)cc2)C1)C(=O)C(=O)c1ccco1 (centres unmarked) | -74.5
CC(C)c1ccc(NC(=S)NN2C(C)CCCC2C)cc1 (centres unmarked) | 28
Cc1nc(N2CCN(c3ccccn3)CC2)c2c(C)c(C(=O)N3CCN(c4ccc(F)cc4)CC3)sc2n1 | 6.79
Cc1cc(NS(=O)(=O)c2ccc(NC(=O)C(C)Oc3ccc(C(C)C)cc3)cc2)no1 (centres unmarked) | 5.89
CCCN(CCC)CCCNC(=O)c1ccc2c(Cl)c3c(nc2c1)CCC3 | -29.1
CC(Oc1ccc2c3c(c(=O)oc2c1)CCC3)C(=O)NCC1CCC(C(=O)O)CC1 (centres unmarked) | 12.5
C=CCNC(=O)Nc1ccc2oc(C)nc2c1 | -1.38
COCCN(Cc1cc2ccccc2[nH]c1=O)C(=O)c1ccccc1OC | -1.13
CCOc1cc(NC(=S)NCC2CCCO2)c(OCC)cc1NC(=O)c1ccccc1C (centres unmarked) | -15.4
CCc1c(C)nc(N2CCN(c3ccc(OC)cc3)CC2)[nH]c1=O | 14.4
O=C(Nc1ccc(Br)cc1)C(c1ccccc1)c1ccccc1 | 14.5
CN(CC(=O)Nc1ccc(S(=O)(=O)N2CCCC2)cc1)Cc1ccc(Cl)cc1 | 5.6
CC(C)C(c1nnnn1Cc1ccccc1)N(CCCO)Cc1cc2cc3c(cc2[nH]c1=O)OCO3 (centres unmarked) | -7.12
COc1ccccc1N1CCN(C(=O)N2CCOCC2)CC1 | 22.5
CCCCn1c(SCC(=O)NC2CC2)nnc1-c1ccncc1 | 17.2
CCc1nc2c(c(=O)c3ccccc3n2C)c(=O)n1C1CCCCCC1 | -1.73
Cc1ccc(CNS(=O)(=O)c2ccc3oc(C(=O)O)c(C)c3c2)cc1 | -3.09
COc1ccc(NC(=O)CSc2c3c(nc4ccccc24)CCC3)c(OC)c1 | -36.9

SMILES | hERG current change (%, negative = inhibition) at 10uM [%]
CCOC(=O)N1CCC(NC(=O)c2cc(COc3ccc(F)cc3Cl)on2)CC1 | -0.672
COc1ccc(C)cc1S(=O)(=O)N1CCCC(C(=O)N2CCN(c3ccccc3F)CC2)C1 (centres unmarked) | -23.4
O=C(NC1CCSc2ccccc21)c1ccc(F)c(S(=O)(=O)N2CCOCC2)c1 (centres unmarked) | -3.33
C=CCN1C(=O)[C@@H]2Cc3c([nH]c4ccccc34)C(c3ccc(O)cc3)N2C1=S (some centres unmarked) | 16.6
CN(C)CCN1C(=O)C(=O)/C(=C(/O)c2ccc(F)cc2)C1c1ccccc1F (centres unmarked) | 11.8
Cc1cc(C)n(-c2nc3ccccc3c(=O)n2OCC(C)C)n1 | 9.88
O=c1cc(N2CCC3(CC2)OCCO3)[nH]c(=O)n1-c1ccc(Cl)cc1 | -10.1
COCCCN(C(=O)c1ccco1)c1nc(-c2ccc(OC)cc2)cs1 | 1.81
O=C(COC(=O)C1CC1)c1c[nH]c2ccccc12 | 1.48
CN(c1ccccc1)c1ccc(/C=C(\C#N)c2nnc3n2CCCCC3)cc1[N+](=O)[O-] | -45.5
COc1cccc(CNC(=O)C2CCC(=O)N(CC3CCCCC3)C2)c1OC (centres unmarked) | 16.7
Cc1ccc(-c2csc3ncn(CC#N)c(=O)c23)cc1 | 5.01
Cc1cc(NC(=O)CCCOc2ccc(Cl)cc2Cl)no1 | 19.7
O=C(CN(Cc1ccccc1C(F)(F)F)C(=O)CNC(=O)c1ccco1)NC1CCCC1 | -9.63
Cc1cc(C)c2cc(C(O)c3nnnn3Cc3ccccc3)c(=O)[nH]c2c1 (centres unmarked) | -11.8
C[C@@H](O)[C@H]1O[C@]2(C)CCC[C@H]1O2 | 17
O=C(C1CCN(S(=O)(=O)c2ccccc2)CC1)N1CCc2ccccc21 | 28
CCOC(=O)c1cnc(-c2ccccc2)nc1Oc1ccc(Cl)c(Cl)c1 | 7.25
COCc1ccc(C(=O)NC2CCCN(Cc3ccccc3F)C2)o1 (centres unmarked) | 11.2
O=C(c1ccc(S(=O)(=O)Cc2ccccc2F)c([N+](=O)[O-])c1)N1CCCCCC1 | -18.6
CC1(C)Cc2cccc(OCC(=O)O)c2O1 | 17.9
O=C(O)c1ccc(/C=N/NC(=O)C(O)(c2ccccc2)c2ccccc2)cc1 | 12.4
